Measured values from PubChem BioAssay (Tox21).
“And” between values parts separate entries of the source, which are not always exact repeats. Identical values can stand only once. The inconclusive results got no clear call from the source; some entries with a clear call stand among them for comparison. For some of these results: Where the call is inconclusive, the potency comes from a doubtful curve fit. The source made the active and inactive calls. Unless noted, calls come from the whole dose curve.

Columns and labels:
[1] = molecular target: Peroxisome proliferator-activated receptor gamma (Homo sapiens) (UniProt P37231); assay: qHTS assay to identify small molecule antagonists of the peroxisome proliferator-activated receptor gamma (PPARg) signaling pathway (AID 743191); details: HEK293H PPARg-UAS-bla, beta-lactamase ratio, antagonist, 17 h; note: nearly all actives have a fitted effect of over 30% in size; note: potency is the fitted concentration of half-maximal effect
Outline: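 Beta-lactamase reporter under UAS control in HEK293H PPARg-bla cells; compound treatment 17 h at 37C. Read-out: fluorescence intensity after 1 h room-temperature incubation with LiveBLAzer B/G FRET substrate.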

[2] = qHTS assay to identify small molecule antagonists of the peroxisome proliferator-activated receptor gamma (PPARg) signaling pathway - cell viability counter screen (AID 743194; active = well fitted curve in the direction sought with a large enough effect in the repeat runs; inconclusive = weak or mixed curves; inactive = no such curve, though single readings can be large; an effect the other way counts as inactive or inconclusive; note: nearly all actives have a fitted effect of over 55% in size; note: potency is the fitted concentration of half-maximal effect); details: PPARg-bla HEK293H viability, CellTiter-Glo luminescence, 17 h, co-treated with 50 nM rosiglitazone; activity change, negative = cytotoxicity: at 62.6 µM (top of the series) unless noted
Outline: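 Viability was measured as CellTiter-Glo luminescence in GeneBLAzer PPARg UAS-bla HEK293H cells. These cells had been exposed 17 h at 37 C to compounds together with rosiglitazone at 50 nM final, with the beta-lactamase readout taken in the same wells.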

[3] = qHTS assay for small molecule agonists of the antioxidant response element (ARE) signaling pathway (AID 743202; active = well fitted activation curve with a large enough effect in the signal ratio in the repeat runs, not every such curve was filed as active; inconclusive = weak or mixed curves, or effect the other way; inactive = no such curve, though single readings can be large or run the other way; the % refers to the signal ratio; note: potency is the fitted concentration of half-maximal effect); details: HepG2 ARE-bla reporter, beta-lactamase FRET, 16 h; activation: at 73.3 µM (top of the series) unless noted
Outline: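 After 16 hours of compound treatment at 37 C, HepG2 cells with a stably integrated ARE-driven beta-lactamase reporter were loaded 2 hours at room temperature with LiveBLAzer B/G FRET substrate and fluorescence intensity measured.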

[4] = qHTS assay for small molecule activators of the heat shock response signaling pathway - cell viability counter screen (AID 743209; active = well fitted curve in the direction sought with a large enough effect in the repeat runs; inconclusive = weak or mixed curves; inactive = no such curve, though single readings can be large; an effect the other way counts as inactive or inconclusive; note: nearly all actives have a fitted effect of over 50% in size; note: potency is the fitted concentration of half-maximal effect); details: HSE-bla HeLa viability, CellTiter-Glo luminescence, 5 h; activity change, negative = cytotoxicity: at 62.6 µM (top of the series) unless noted
Outline: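 To flag cytotoxic compounds, HSE-bla HeLa cells plated at 1500 cells/well were dosed for 5 h at 37 C, followed by the reporter FRET read and then CellTiter-Glo, with luminescence recorded 30 min after reagent addition.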

[5] = qHTS assay for small molecule activators of the heat shock response signaling pathway (AID 743210; active = well fitted activation curve with a large enough effect in the signal ratio in the repeat runs, with a control signal flat, not every such curve was filed as active; inconclusive = weak or mixed curves; the % refers to the signal ratio; note: potency is the fitted concentration of half-maximal effect); details: HeLa HSE-bla reporter, beta-lactamase ratio, 5 h; activation: at 62.6 µM (top of the series) unless noted
Outline: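 Compound exposure lasted 5 h at 37 C in HeLa cells carrying a heat-shock-element-driven beta-lactamase reporter. Read-out: fluorescence intensity after 2.5 h room-temperature loading with LiveBLAzer B/G FRET substrate.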

[6] = qHTS assay to identify small molecule agonists of the peroxisome proliferator-activated receptor delta (PPARd) signaling pathway - cell viability counter screen (AID 743211; active = well fitted curve in the direction sought with a large enough effect in the repeat runs; inconclusive = weak or mixed curves; inactive = no such curve, though single readings can be large; an effect the other way counts as inactive or inconclusive; note: nearly all actives have a fitted effect of over 55% in size); details: PPARd-bla HEK293H viability, CellTiter-Glo luminescence, 17 h; activity change, negative = cytotoxicity: at 62.6 µM (top of the series)
Outline: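 Following 5 h plating at 37 C and 5% CO2, PPARd UAS-bla HEK293H cells took up test compounds for 17 h. Viability was quantified by luminescence 30 min after CellTiter-Glo addition at room temperature.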

[7] = ratio activity, negative = inhibition: at 62.6 µM (top of the series) unless noted
% is set by controls: 0 for no effect and ±100 for the full control effect; tags give direction and shape of the fitted curve or compound fluorescence and quenching.

UniProt P37231, sequence (P37231 whole entry, looked up): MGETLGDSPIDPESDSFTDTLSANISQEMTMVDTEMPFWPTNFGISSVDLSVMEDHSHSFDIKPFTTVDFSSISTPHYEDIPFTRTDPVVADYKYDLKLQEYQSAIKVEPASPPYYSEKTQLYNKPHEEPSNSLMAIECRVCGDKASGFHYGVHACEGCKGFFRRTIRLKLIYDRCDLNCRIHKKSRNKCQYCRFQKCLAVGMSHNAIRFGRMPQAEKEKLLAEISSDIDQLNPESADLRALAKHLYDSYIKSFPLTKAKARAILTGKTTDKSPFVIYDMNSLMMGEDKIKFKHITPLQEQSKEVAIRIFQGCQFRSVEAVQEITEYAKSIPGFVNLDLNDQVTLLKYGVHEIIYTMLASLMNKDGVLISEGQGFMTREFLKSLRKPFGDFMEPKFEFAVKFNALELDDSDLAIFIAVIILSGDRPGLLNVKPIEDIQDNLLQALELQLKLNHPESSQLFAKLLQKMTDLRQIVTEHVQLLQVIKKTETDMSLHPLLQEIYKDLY

With `COc1ccc(/C=C/S(=O)(=O)NC(=O)c2ccc(C)cc2Cl)cc1` the Potency [1, 7] was inconclusive: 61.6 µM [inhibitor, partial curve, poor fit] and the Potency [2] was “inactive”.
With `NCCNCCNCCNCCN` the ratio activity, negative = inhibition ([1]; at 13.2 µM (top of the series)) was inconclusive: 6.96%, the ratio activity, negative = inhibition ([1]; at 62.6 µM (top of the series)) was inconclusive: 4.29% and the Potency [3] was inconclusive: 3.05 µM [falling, partial curve, poor fit]. For the same compound, the activation [3] was inconclusive: -20.3% [at 8.36 µM].
With `CC(C)(CO)[C@@H](O)C(=O)NCCCO` the Potency [1, 7] was “inactive”.
With `OCCCCC(O)CO` (configuration not stated) the Potency [1, 7] was “inactive” and the Potency [2] was “inactive”.
In the case of `C=C(C#N)C(=O)OCC`, the Potency [1, 7] is reported as inconclusive: 38.9 µM [activator, partial curve, poor fit], the ratio activity, negative = inhibition [1, 7] is reported as inconclusive: 4.32% and the Potency [3] is reported as “inactive”. The Potency [4] was inconclusive: 24.5 µM [cytotoxic, full curve], the Potency [5] was “inactive and inconclusive: 32.1 µM” and the Potency [6] was “inactive”.
In the case of `Nc1ccc2c(O)cc(S(=O)(=O)O)cc2c1`, the Potency [1, 7] is reported as inconclusive: 55 µM [inhibitor], the ratio activity, negative = inhibition [1, 7] is reported as inconclusive: -44.1% [inhibitor] and the Potency [3] is reported as inconclusive: 12.2 µM [rising, partial curve, poor fit]. For the same compound, the activation [3] was inconclusive: -10.2%.
For `CC(=O)Nc1ccc2c(c1)Cc1cc(NC(C)=O)ccc1-2`, the ratio activity, negative = inhibition ([1]; at 62.6 µM (top of the series)) was inactive: 25.7%, the ratio activity, negative = inhibition [1, 7] was inconclusive: 0.327% and the Potency [2] was inconclusive: 61.7 µM [cytotoxic, single point]. The Potency [4] was “inactive”.
With `CC(C)N=C=NC(C)C` the Potency [1, 7] was “inactive” and the Potency [2] was “inactive”.
With `CCCCCCOC(=O)C(C)C` the ratio activity, negative = inhibition [1, 7] was inconclusive: -1.64% and the Potency [2] was “inactive”.
In the case of `C=C(CC(=O)O)C(=O)O`, the ratio activity, negative = inhibition ([1]; at 81.1 µM (top of the series)) is reported as inactive: 10.2% and the ratio activity, negative = inhibition [1, 7] is reported as inconclusive: 0% [at 81.1 µM].
With `COCC(=O)O` the ratio activity, negative = inhibition ([1]; at 81.1 µM (top of the series)) was inactive: 7.05%, the ratio activity, negative = inhibition [1, 7] was inconclusive: -8.27% and the activation [3] was inconclusive: -15.3%.
With `CCCSSCCC` the Potency [1, 7] was “inactive” and the Potency [2] was “inactive”.
With `CCCCC1(COC(=O)CCC(=O)O)C(=O)N(c2ccccc2)N(c2ccccc2)C1=O` the ratio activity, negative = inhibition ([1]; at 62.6 µM (top of the series)) was inactive: -6.83% and inactive: 10.1%, the ratio activity, negative = inhibition [1, 7] was inconclusive: 1.72% and the activation [3] was inconclusive: 4.33% and inconclusive: 24.4%.
